# The supplement of paper PMC8728848
# This is one part of the list.
# B1: MD-2 (Homo sapiens) (protein)
# chain: MLPFLFFSTLFSSIFTEAQKQYWVCNSSDASISYTYCDKMQYPISINVNPCIELKGSKGLLHIFYIPRRDLKQLYFNLYITVNTMNLPKRKEVICRGSDDDYSFCRALKGETVNTTISFSFKGIKFSKGKYKCVVEAISGSPEEMLFCLEFVILHQPNSN
# Experiments:
# Assay in all cases: glycan array binding signal (z-score within array); higher = stronger binding
# Conditions in all cases: glycan notation: IUPAC condensed, linker removed
# GlcNAc(b1-3)Gal(b1-4)Glc = biological target: GlcNAc(b1-3)Gal(b1-4)Glc
# Method in brief: (§1)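 The binding signal is a Z-score computed within each array and averaged over linkers. Arrays of the same protein sequence at different concentrations or buffers were also averaged together. Data originate from 3228 arrays in the Consortium for Functional Glycomics database, kept only where the protein sequence was available.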
# [1] = biological target: GlcNAc(b1-3)Gal(b1-4)GlcNAc
# Method in brief: as §1
# [2] = biological target: GlcNAc(b1-3)Gal(b1-4)GlcNAc(b1-3)Gal(b1-4)GlcNAc
# Method in brief: as §1
# GlcNAc(b1-3)GalNAc = biological target: GlcNAc(b1-3)GalNAc
# Method in brief: as §1
# GlcNAc(b1-3)Man = biological target: GlcNAc(b1-3)Man
# Method in brief: as §1
# [3] = biological target: GlcNAc(b1-3)[GlcNAc(b1-4)][GlcNAc(b1-6)]GlcNAc
# Method in brief: as §1
# [4] = biological target: GlcNAc(b1-3)[GlcNAc(b1-6)]Gal(b1-4)GlcNAc
# Method in brief: as §1
# [5] = biological target: GlcNAc(b1-3)[GlcNAc(b1-6)]GalNAc
# Method in brief: as §1
# [6] = biological target: GlcNAc(b1-4)Gal(b1-4)GlcNAc
# Method in brief: as §1
# GlcNAc(b1-4)GlcNAc = biological target: GlcNAc(b1-4)GlcNAc
# Method in brief: as §1
# [7] = biological target: GlcNAc(b1-4)GlcNAc(b1-4)GlcNAc
# Method in brief: as §1
# [8] = biological target: GlcNAc(b1-4)GlcNAc(b1-4)GlcNAc(b1-4)GlcNAc(b1-4)GlcNAc
# Method in brief: as §1
# [9] = biological target: GlcNAc(b1-4)GlcNAc(b1-4)GlcNAc(b1-4)GlcNAc(b1-4)GlcNAc(b1-4)GlcNAc
# Method in brief: as §1
# [10] = biological target: GlcNAc(b1-4)[GlcNAc(b1-6)]GalNAc
# Method in brief: as §1
# [11] = biological target: GlcNAc(b1-6)Gal(b1-4)GlcNAc
# Method in brief: as §1
# GlcNAc(b1-6)GalNAc = biological target: GlcNAc(b1-6)GalNAc
# Method in brief: as §1
# GlcNAc3Prop(b1-4)GlcNAc = biological target: GlcNAc3Prop(b1-4)GlcNAc
# Method in brief: as §1
# Kdn(a2-3)Gal(b1-3)GlcNAc = biological target: Kdn(a2-3)Gal(b1-3)GlcNAc
# Method in brief: as §1
# Kdn(a2-3)Gal(b1-4)GlcNAc = biological target: Kdn(a2-3)Gal(b1-4)GlcNAc
# Method in brief: as §1
# [12] = biological target: Man(a1-2)Man(a1-2)Man(a1-3)Man
# Method in brief: as §1
# [13] = biological target: Man(a1-2)Man(a1-2)Man(a1-6)[Man(a1-3)]Man
# Method in brief: as §1
# Man(a1-2)Man(a1-3)Man = biological target: Man(a1-2)Man(a1-3)Man
# Method in brief: as §1
# [14] = biological target: Man(a1-2)Man(a1-3)[Man(a1-2)Man(a1-6)]Man
# Method in brief: as §1
# [15] = biological target: Man(a1-2)Man(a1-3)[Man(a1-2)Man(a1-6)]Man(a1-6)[Man(a1-2)Man(a1-2)Man(a1-3)]Man
# Method in brief: as §1
# [16] = biological target: Man(a1-2)Man(a1-3)[Man(a1-2)Man(a1-6)]Man(a1-6)[Man(a1-2)Man(a1-2)Man(a1-3)]Man(b1-4)GlcNAc(b1-4)GlcNAc
# Method in brief: as §1
# [17] = biological target: Man(a1-2)Man(a1-3)[Man(a1-6)]Man(a1-6)[Man(a1-2)Man(a1-3)]Man(b1-4)GlcNAc(b1-4)GlcNAc
# Method in brief: as §1
# [18] = biological target: Man(a1-2)Man(a1-6)[Man(a1-3)]Man(a1-6)[Man(a1-2)Man(a1-2)Man(a1-3)]Man
# Method in brief: as §1
# [19] = biological target: Man(a1-2)Man(a1-6)[Man(a1-3)]Man(a1-6)[Man(a1-2)Man(a1-2)Man(a1-3)]Man(b1-4)GlcNAc(b1-4)GlcNAc
# Method in brief: as §1
# Man(a1-3)[Man(a1-6)]Man = biological target: Man(a1-3)[Man(a1-6)]Man
# Method in brief: as §1
# [20] = biological target: Man(a1-3)[Man(a1-6)]Man(a1-6)[Man(a1-2)Man(a1-3)]Man(b1-4)GlcNAc(b1-4)GlcNAc
# Method in brief: as §1
# [21] = biological target: Man(a1-3)[Man(a1-6)]Man(a1-6)[Man(a1-3)]Man
# Method in brief: as §1
# [22] = biological target: Man(a1-3)[Man(a1-6)]Man(a1-6)[Man(a1-3)]Man(b1-4)GlcNAc(b1-4)GlcNAc
# Method in brief: as §1
# [23] = biological target: Man(a1-3)[Man(a1-6)]Man(b1-4)GlcNAc(b1-4)GlcNAc
# Method in brief: as §1
# Man(a1-6)Man = biological target: Man(a1-6)Man
# Method in brief: as §1
# Man(b1-4)GlcNAc = biological target: Man(b1-4)GlcNAc
# Method in brief: as §1
# Neu5Ac(a2-3)Gal = biological target: Neu5Ac(a2-3)Gal
# Method in brief: as §1
# [24] = biological target: Neu5Ac(a2-3)Gal(b1-3)GalNAc
# Method in brief: as §1
# [25] = biological target: Neu5Ac(a2-3)Gal(b1-3)GalNAc(b1-3)Gal(a1-4)Gal(b1-4)Glc
# Method in brief: as §1
# [26] = biological target: Neu5Ac(a2-3)Gal(b1-3)GalNAc(b1-3)Gal(b1-4)GlcNAc
# Method in brief: as §1
# [27] = biological target: Neu5Ac(a2-3)Gal(b1-3)GalNAc(b1-4)[Neu5Ac(a2-3)]Gal(b1-4)Glc
# Method in brief: as §1
# [28] = biological target: Neu5Ac(a2-3)Gal(b1-3)GalNAc6S
# Method in brief: as §1
# [29] = biological target: Neu5Ac(a2-3)Gal(b1-3)GlcNAc
# Method in brief: as §1
# [30] = biological target: Neu5Ac(a2-3)Gal(b1-3)GlcNAc(b1-3)Gal(b1-3)GlcNAc
# Method in brief: as §1
# [31] = biological target: Neu5Ac(a2-3)Gal(b1-3)GlcNAc6S
# Method in brief: as §1
# [32] = biological target: Neu5Ac(a2-3)Gal(b1-3)[Fuc(a1-4)]GlcNAc
# Method in brief: as §1
binder,measurement,setting,value
B1,glycan array binding signal (z-score),GlcNAc(b1-3)Gal(b1-4)Glc,-0.35
same,glycan array binding signal (z-score),[1],-0.134
same,glycan array binding signal (z-score),[2],0.006
same,glycan array binding signal (z-score),GlcNAc(b1-3)GalNAc,-0.327
same,glycan array binding signal (z-score),GlcNAc(b1-3)Man,-0.282
same,glycan array binding signal (z-score),[3],-0.273
same,glycan array binding signal (z-score),[4],0.092
same,glycan array binding signal (z-score),[5],-0.385
same,glycan array binding signal (z-score),[6],-0.235
same,glycan array binding signal (z-score),GlcNAc(b1-4)GlcNAc,-0.346
same,glycan array binding signal (z-score),[7],-0.269
same,glycan array binding signal (z-score),[8],4.23
same,glycan array binding signal (z-score),[9],5.59
same,glycan array binding signal (z-score),[10],-0.369
same,glycan array binding signal (z-score),[11],-0.164
same,glycan array binding signal (z-score),GlcNAc(b1-6)GalNAc,-0.474
same,glycan array binding signal (z-score),GlcNAc3Prop(b1-4)GlcNAc,-0.375
same,glycan array binding signal (z-score),Kdn(a2-3)Gal(b1-3)GlcNAc,-0.332
same,glycan array binding signal (z-score),Kdn(a2-3)Gal(b1-4)GlcNAc,-0.223
same,glycan array binding signal (z-score),[12],-0.476
same,glycan array binding signal (z-score),[13],-0.388
same,glycan array binding signal (z-score),Man(a1-2)Man(a1-3)Man,-0.386
same,glycan array binding signal (z-score),[14],-0.391
same,glycan array binding signal (z-score),[15],-0.389
same,glycan array binding signal (z-score),[16],0.372
same,glycan array binding signal (z-score),[17],-0.264
same,glycan array binding signal (z-score),[18],-0.375
same,glycan array binding signal (z-score),[19],-0.319
same,glycan array binding signal (z-score),Man(a1-3)[Man(a1-6)]Man,-0.423
same,glycan array binding signal (z-score),[20],-0.059
same,glycan array binding signal (z-score),[21],-0.348
same,glycan array binding signal (z-score),[22],0.116
same,glycan array binding signal (z-score),[23],-0.335
same,glycan array binding signal (z-score),Man(a1-6)Man,0.081
same,glycan array binding signal (z-score),Man(b1-4)GlcNAc,-0.047
same,glycan array binding signal (z-score),Neu5Ac(a2-3)Gal,-0.167
same,glycan array binding signal (z-score),[24],0.056
same,glycan array binding signal (z-score),[25],-0.444
same,glycan array binding signal (z-score),[26],-0.222
same,glycan array binding signal (z-score),[27],-0.293
same,glycan array binding signal (z-score),[28],0.195
same,glycan array binding signal (z-score),[29],-0.308
same,glycan array binding signal (z-score),[30],-0.361
same,glycan array binding signal (z-score),[31],0.221
same,glycan array binding signal (z-score),[32],-0.38
